# Test results reported in the RNAGym collection of RNA variant scans (doi:10.7554/elife.90254).
# The source gives no read counts; variants with many changes may rest on few reads.
# B1: LINE1-mini (parent)
# chain: GGCAGAGCUCAACACAGCGUGGCAAAGUGGCUGUGGCUAGACUGCC
# Variants of: B1
# Assay: self-cleavage, relative activity (ratio to wild type); higher = more cleavage; in vitro, sequencing; the parent is a self-cleaving ribozyme
row,Variant,self-cleavage
1,GGCAAAUCUCAACACAGCGUGGCAUAGUGGCUGUGGCCAGAAUGCC,0.01
2,GGCAAAGCUCAACACACCGUAGCAAAGUGGCUGUGGCUAGGCUGCC,0.02
3,GGCAAAGCUUCACACAGCGUGGCAAAGUGGCUGUGGCUAGACUGCC,0.02
4,GGCAAAGCUCAACACAGCGUAGCAAAGUGGUUGUGGCGAGACUGCC,0.02
5,GGCAAAGCUCAAUACAGCGUGGCAAAGUGGCUUUGGCUAGUCUGCC,0.05
6,GGCAAAGCUCAACACAGCGUGGGAAAGGGGGUGUCGCUAGACUGCC,0.1
7,GGCAAAGCUCAACACAGAGUGGUAAGGUGGCUGUGGCUAGACUGCC,0.03
8,GGCAAAGCUCAACACAGUGUGGCAAAAUCGCUGUGGCUAGACUGCC,0.04
9,GGCAAAGCUCAACACAGCGUCGCAAAGUGGCUGUGGCUAGACUGCG,0.09
10,GGCAAAGCUCAACACAGCGUGGCAAAGUGACCGUGGCUAGACUGAC,0.06
11,GGCAAAGCUCAACACAGCGUGGCAAAGUGCCUGUGUCUAGACUGGC,1.03
12,GGCAAAGCUCAACACAGCGUGGCAAAGUGGCUGUCGCUAGCCUGCC,0.05
13,GGCAAAGCUCAACAAGGCGUGGCGAAGUGGCUGUGGCUAGACUGCC,0.03
14,GGCAAAGCUCAACACAGCGUGGCAAAGUUGCUGUGGCUAGACCGUC,0.07
15,GGCAAAGCUCAAAACAGCGUGGCAAAGUGGCUGUGGCUAGUCUGCC,0.13
16,GGCAAAGCUCAACACAGCGUGGCAAAGUGGCUGUGGGUAGACUCCC,0.01
17,GGCAAAGCUCAACACAGAGUGGCAAAGUGGCUGUAGCUAGACUCCC,0.01
18,GGCAAAGCUUGAUACAGCGUGCCGAAGAGGCUGUGGCUAGACUGCC,0.01
19,GGCAAAGCUUAACACAGCGUCACAAAGUGGCUGUGGCUAGACUGCC,0.01

row,Variant,self-cleavage
1,GGCAAAGCUCAACAAAGGGUGGCAAAGUGAGUAUGGCUAGACUGCC,0.02
2,GGCAAAGCUCAACACAGCGUGGCAAAGUGCCUGUGGCUCGACUGCC,0.02
3,GGCAAAGCUCAACACAUCGUGGCAAAGUGGGUGUGGCUAGACUACC,0.09
4,GGCAAAGCUCAACACAGCGUGGGAAAGUGGGUGUGGCUAGACUGCU,0.04
5,GGCAAAGCUCAACACAGCGUGCCAAAGUGGCUGUGGCUAAACUGCC,0.13
6,GGCAAAGCUCAACACAGCGUGGCAAACUGGCUGUGACUAGACUUCC,0.18
7,GGCAAAGCUCAACACAGAGUGGUAAAGGGGCUGUGGCUAUACUGCC,0.13
8,GGCAAAGCUCAACACAGCGUGGCAAAGUGCCUGGGGCUAGGCUGCC,0.02
9,GGCAAAGCUCAACACAGCGUGAUAAAGUGGCCGUUGCUAGACUGCC,0.03
10,GGCAAAGCUCAAAACAGCGUGGCAAAGUGGCGGUAGCUAGACUGCC,0.09
11,GGCAAAGCUCAACACAACGUUGCAAACUGGCUGUGGCUAGACUGCC,0.08
12,GGCAAAUCCCAACACAGCGUGGUAAAGUGGCUGUGGCUAGAGUGCC,0.1
13,GGCAAAGCUCAACACAGCGUGGCAAAGUAGCUGUGGCUAGACUGCA,0.47
14,GGCAAAGCUCAACACAGAGUGGCAAAGUGGCUGUUGCUAGACCGCC,0.06
15,GGCAAAGCUCAACACAGCGUUGCAAAGUGGCUGUGGCUAGACUGUC,0.6
16,GGCAAAGCUCAACACAGCGUGAAAAUGUGGCUGAGGUUCGACUGCC,0.01
17,GGCAAAGCGCACAACAGCGUCGCAAUGUGGCUGUGGCUAGACUGCA,0.04
18,GGCAAAGCUCAACAUAGCGUGGCAAAGUAGCUGUGCCUAGACUGCC,0.02
19,GGCAAAGCUCAACACAGCGUGGCAAAAUAGCUGCGGCUAGACUGCC,0.04

row,Variant,self-cleavage
1,GGCAAAGCUUCACACAGCGUGGCAAAGUGGCUGUGGCUAGUCUCCC,0.03
2,GGCAAAGCUCAACACAGCGUGGCAAAGUGGCUGUGGCUAGACUGGU,0.22
3,GGCAAAGCUCAAUACAGUGUGGCAAAGUGGCUGUGGCUAGACUGCC,0.08
4,GGCAAAGCUGAACACAGCGUGGCAAAGUGGCUGCGGCUAGACUGCU,0.02
5,GGCAAAACUCAACAAAGCGUGGCAAAGUGGCUGUGGCAAGACUGCC,0.06
6,GGCAAAGCUCAACACAGUGUGGCAAAGUGGCUGUGGCUAGACCGCC,0.1
7,GGCAAAGCUUAACACAGCGUGGCAAAGUGUCUAUGGAUAGACUGCC,0.03
8,GGCAAAGCUCAACACAGAGUGGCAAAGUGGCUGUGGCUAGACCGUG,0.01
9,GGCAAAGCUCAAUACAGCGUGGCAAAGUGGCUGUGGCUACACUGCC,0.06
10,GGCAAAGCUCAAAACAGCGAGGUAAAGAGGGUGUGGCUAGUCUGCC,0.01
11,GGCAAAGCUCAACAGAGCGUGGCAAAGUGGCUGUCGCUAGACUCCU,0.04
12,GGCAAAGCUCAACACAGCGUGGCAAAGUGGUUUUGGCUAGACUGCC,0.04
13,GGCAAAGCUCAACACAGCGUGGCAAAGUGGCUGUCGCUGGACUGCC,0.05
14,GGCAAAGCUCAACACAUCGUGGCAAAGUGGCUGUGGCUAGACUGAC,0.04
15,GGCAAAGCUCAACACAGCGUGGUAAAGUGGCCGUGGCUAGACUGCC,0.05
16,GGCAAAGCUCAAUACCGCGUGGCAAAAUGGCUGUGGCUAGACUGCC,0.1
17,GGCAAAGCUCAACACAGCGUGGCAAAGUGGCUAUGGCUAGACUACC,0.02
18,GGCAAAGCUCAACACAGCGUCGUAAAGUGGGUGUGGCUAGACUGCC,0.11
